B1: CID 213182, fusion protein n[VEGF-BP, Col2-BP1 as dimer]c (Fc fusion)
chain: SDTGRPFVEMYSEIPEIIHMTEGRELVIPCRVTSPNITVTLKKFPLDTLIPDGKRIIWDSRKGFIISNATYKEIGLLTCEATVNGHLYKTNYLTHRQTNTIIDVVLSPSHGIELSVGEKLVLNCTARTELNVGIDFNWEYPSSKHQHKKLVNRDLKTQSGSEMKKFLSTLTIDGVTRSDQGLYTCAASSGLMTKKNSTFVRVHEK[skipping human IgG1 Fc]GGGSGGGGSGGGGSIAAKFDEAQSAADSEILHLPNLTEQQRHYFRRWLSDDPSVSTHILTQAQHLNDDQAPKIAAKFDEAQSAADSEILHLPNLTEQQRHYFRRWLSDDPSVSTHILTQAQHLNDDQAPK
notes: Made in Expi293-F cells; also called fusion protein 213182
B2: CID 217793, fusion protein n[Col2-BP1_as dimer - VEGF-BP]c (Fc fusion)
chain: IAAKFDEAQSAADSEILHLPNLTEQQRHYFRRWLSDDPSVSTHILTQAQHLNDDQAPKIAAKFDEAQSAADSEILHLPNLTEQQRHYFRRWLSDDPSVSTHILTQAQHLNDDQAPKGGGGSGGGGSGGGGSSDTGRPFVEMYSEIPEIIHMTEGRELVIPCRVTSPNITVTLKKFPLDTLIPDGKRIIWDSRKGFIISNATYKEIGLLTCEATVNGHLYKTNYLTHRQTNTIIDVVLSPSHGIELSVGEKLVLNCTARTELNVGIDFNWEYPSSKHQHKKLVNRDLKTQSGSEMKKFLSTLTIDGVTRSDQGLYTCAASSGLMTKKNSTFVRVHEK[skipping human IgG1 Fc]
notes: Col2-BP1 at the N-terminus, Aflibercept at the C-terminus
B3: CID 213184, fusion protein n[VEGF-BP, Col2-BP1 as tetramer]c (Fc fusion)
chain: SDTGRPFVEMYSEIPEIIHMTEGRELVIPCRVTSPNITVTLKKFPLDTLIPDGKRIIWDSRKGFIISNATYKEIGLLTCEATVNGHLYKTNYLTHRQTNTIIDVVLSPSHGIELSVGEKLVLNCTARTELNVGIDFNWEYPSSKHQHKKLVNRDLKTQSGSEMKKFLSTLTIDGVTRSDQGLYTCAASSGLMTKKNSTFVRVHEK[skipping human IgG1 Fc]GGGSGGGGSGGGGSIAAKFDEAQSAADSEILHLPNLTEQQRHYFRRWLSDDPSVSTHILTQAQHLNDDQAPKIAAKFDEAQSAADSEILHLPNLTEQQRHYFRRWLSDDPSVSTHILTQAQHLNDDQAPKIAAKFDEAQSAADSEILHLPNLTEQQRHYFRRWLSDDPSVSTHILTQAQHLNDDQAPKIAAKFDEAQSAADSEILHLPNLTEQQRHYFRRWLSDDPSVSTHILTQAQHLNDDQAPK
notes: also called fusion protein 213184

Legend:
[1] = target: T1, human Type III collagen (human, UniProt P02461 154-1221); experiment: ELISA, human Type III collagen coated on the plate, detection with anti-human-IgG antibody
T1 construct: also called hColIII; Col III
T1 sequence (looked up): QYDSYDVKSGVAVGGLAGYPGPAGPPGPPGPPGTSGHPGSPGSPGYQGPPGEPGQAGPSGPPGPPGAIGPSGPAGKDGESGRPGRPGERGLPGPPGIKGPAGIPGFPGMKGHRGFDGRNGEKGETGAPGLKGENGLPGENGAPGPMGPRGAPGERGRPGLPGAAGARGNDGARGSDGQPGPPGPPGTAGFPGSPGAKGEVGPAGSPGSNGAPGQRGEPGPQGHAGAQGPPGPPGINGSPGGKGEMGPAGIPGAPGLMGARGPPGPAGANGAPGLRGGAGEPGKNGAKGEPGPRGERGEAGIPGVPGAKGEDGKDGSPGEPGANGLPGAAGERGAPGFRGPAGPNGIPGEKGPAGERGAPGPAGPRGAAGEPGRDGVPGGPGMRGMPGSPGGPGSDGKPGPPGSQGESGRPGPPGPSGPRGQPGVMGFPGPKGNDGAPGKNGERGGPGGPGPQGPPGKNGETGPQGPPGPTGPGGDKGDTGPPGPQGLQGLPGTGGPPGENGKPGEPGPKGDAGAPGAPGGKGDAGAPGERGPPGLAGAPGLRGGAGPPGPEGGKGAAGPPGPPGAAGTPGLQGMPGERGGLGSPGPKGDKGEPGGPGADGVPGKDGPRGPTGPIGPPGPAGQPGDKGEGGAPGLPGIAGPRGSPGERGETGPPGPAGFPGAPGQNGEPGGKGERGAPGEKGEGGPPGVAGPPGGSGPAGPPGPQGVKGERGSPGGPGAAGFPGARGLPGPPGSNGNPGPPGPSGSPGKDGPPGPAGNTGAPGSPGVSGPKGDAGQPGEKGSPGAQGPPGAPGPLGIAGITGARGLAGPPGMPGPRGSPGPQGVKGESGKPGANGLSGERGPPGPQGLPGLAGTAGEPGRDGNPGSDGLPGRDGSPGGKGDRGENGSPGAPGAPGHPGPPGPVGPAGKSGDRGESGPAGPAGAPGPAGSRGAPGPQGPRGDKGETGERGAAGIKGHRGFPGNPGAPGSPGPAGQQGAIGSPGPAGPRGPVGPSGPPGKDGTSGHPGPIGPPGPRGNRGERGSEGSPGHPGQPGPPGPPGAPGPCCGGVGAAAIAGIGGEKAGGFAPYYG
Procedure: (§1) High binding plates (Greiner, 781061) were immobilized with 2.5 μg/ml recombinant human Type II collagen (hColll, Chondrex, CHX-20051), rabbit Type II collagen (rbColll, prepared from rabbit eyes), porcine Type 11 collagen (pColll, prepared from porcine eyes), human Type I collagen (hColl, Sigma, C5483-1MG), human Type V collagen (hCoIV, Abcam, ab7537), human Type III collagen (hCollll, Abcam, ab7535) and 67B89 (domain of fibronectin, produced in E. coli) over night at 4° C. Fusion proteins CID 212709, CID 213182, CID 213184 and CID 213340 were analyzed with a dilution series in a range of 1111 nM to 6.9×10⁻⁵ nM. ELISA-plates were washed 3 times with PBST (PBS+0.1% Tween) and blocked with 3% BSA/0.5% Tween/PBS 2 h at RT. Plates were washed with PBST and incubated with a-human-IgG-antibody at a dilution of 1:10000. Results.

[2] = target: T2, rabbit Type II collagen (rabbit); experiment: SPR (Biacore 3000), target immobilised on CM5 chip, fusion protein as analyte, Langmuir 1:1
T2 construct: also called rbCol2; rbColII
Procedure: (§2) Binding of Type II collagen or VEGF-A was evaluated by SPR measurements using Biacore 3000 (GE Healthcare). Purified Type II collagen was obtained by Chondrex.inc and VEGF-A (VEGF-165) was obtained by Millipore. The purified target proteins were immobilized on a CM-5 sensor chip (GE Healthcare) using NHS/EDC after PDEA activation resulting in about 1000 RU. The chip was equilibrated with SPR running buffer (PBS 0.05% Tween pH 7.3).
(§3) The analytes were applied to the chip in serial dilutions with a flow rate of 30 μl/min. The association was performed for 120 seconds and the dissociation for 120 seconds. After each run, the chip surface was regenerated with 30 μl regeneration buffer (10 mM glycine pH 2.0) and equilibrated with running buffer. Upon binding, fusion proteins were accumulated on the surface increasing the refractive index. This change in the refractive index was measured in real time and plotted as response or resonance units versus time. Data evaluation was operated via the BIAevaluation 3.0 software, provided by the manufacturer, by the use of the Langmuir 1:1 model (RI=0). Evaluated dissociation constants (KD) were standardized against the immobilized fusion protein and indicated. Shown is the change in refractive index measured in real time and plotted as response or resonance unit [RU] versus time [sec].

[3] = target: T3, VEGF-A (VEGF-165) (human, UniProt P15692-4 27-191); experiment: as above
T3 construct: The isoforms are said to be active as dimers; also called vascular endothelial growth factor
T3 sequence (looked up): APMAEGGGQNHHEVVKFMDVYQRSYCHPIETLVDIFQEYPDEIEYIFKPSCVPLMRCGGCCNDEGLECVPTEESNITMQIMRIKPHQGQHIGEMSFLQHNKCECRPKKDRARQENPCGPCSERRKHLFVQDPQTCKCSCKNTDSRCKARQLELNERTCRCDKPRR
Procedure: as §2, §3

[4] = target: T4, pig Type II collagen (pig); experiment: as above
T4 construct: also called pCol2; pColII
Procedure: as §2, §3

[5] = target: T2, rabbit Type II collagen; experiment: ELISA, rabbit Type II collagen coated on the plate, fusion protein titrated, detection with anti-human-IgG antibody
Procedure: as §1

[6] = target: T5, 67B89 (domain of fibronectin, produced in E. coli) (UniProt P02751 1089-1540, limits assumed); experiment: ELISA, 67B89 (fibronectin domain) coated on the plate, detection with anti-human-IgG antibody
T5 construct: domain: 67B89 (domain of fibronectin)
T5 sequence (P02751 1089-1540 limits assumed): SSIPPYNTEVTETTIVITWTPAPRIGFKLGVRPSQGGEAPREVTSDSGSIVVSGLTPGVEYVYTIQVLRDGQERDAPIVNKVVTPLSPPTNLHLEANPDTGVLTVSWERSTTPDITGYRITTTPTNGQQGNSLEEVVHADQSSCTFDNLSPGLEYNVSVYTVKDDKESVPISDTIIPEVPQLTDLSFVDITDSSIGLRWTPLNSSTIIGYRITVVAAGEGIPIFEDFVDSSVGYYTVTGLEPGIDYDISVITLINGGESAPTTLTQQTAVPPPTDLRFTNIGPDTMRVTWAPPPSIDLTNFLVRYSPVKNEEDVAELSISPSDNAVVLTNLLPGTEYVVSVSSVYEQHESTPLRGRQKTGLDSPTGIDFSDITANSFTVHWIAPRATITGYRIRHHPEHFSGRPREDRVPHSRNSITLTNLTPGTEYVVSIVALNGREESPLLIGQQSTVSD
Procedure: as §1

[7] = target: T4, pig Type II collagen; experiment: ELISA, pig Type II collagen coated on the plate, fusion protein titrated, detection with anti-human-IgG antibody
Procedure: as §1

[8] = target: T6, human Type I collagen (human, UniProt P02452 partial chain; P08123 80-1119); experiment: ELISA, human Type I collagen coated on the plate, detection with anti-human-IgG antibody
T6 construct: also called hColI; Col I
Procedure: as §1

[9] = target: T7, human Type V collagen (human, UniProt P20908 559-1570; P05997 216-1229); experiment: ELISA, human Type V collagen coated on the plate, detection with anti-human-IgG antibody
T7 construct: also called hColV; Col V
Procedure: as §1

human Type V collagen, sequence (P20908 559-1570, chain 1 of 2): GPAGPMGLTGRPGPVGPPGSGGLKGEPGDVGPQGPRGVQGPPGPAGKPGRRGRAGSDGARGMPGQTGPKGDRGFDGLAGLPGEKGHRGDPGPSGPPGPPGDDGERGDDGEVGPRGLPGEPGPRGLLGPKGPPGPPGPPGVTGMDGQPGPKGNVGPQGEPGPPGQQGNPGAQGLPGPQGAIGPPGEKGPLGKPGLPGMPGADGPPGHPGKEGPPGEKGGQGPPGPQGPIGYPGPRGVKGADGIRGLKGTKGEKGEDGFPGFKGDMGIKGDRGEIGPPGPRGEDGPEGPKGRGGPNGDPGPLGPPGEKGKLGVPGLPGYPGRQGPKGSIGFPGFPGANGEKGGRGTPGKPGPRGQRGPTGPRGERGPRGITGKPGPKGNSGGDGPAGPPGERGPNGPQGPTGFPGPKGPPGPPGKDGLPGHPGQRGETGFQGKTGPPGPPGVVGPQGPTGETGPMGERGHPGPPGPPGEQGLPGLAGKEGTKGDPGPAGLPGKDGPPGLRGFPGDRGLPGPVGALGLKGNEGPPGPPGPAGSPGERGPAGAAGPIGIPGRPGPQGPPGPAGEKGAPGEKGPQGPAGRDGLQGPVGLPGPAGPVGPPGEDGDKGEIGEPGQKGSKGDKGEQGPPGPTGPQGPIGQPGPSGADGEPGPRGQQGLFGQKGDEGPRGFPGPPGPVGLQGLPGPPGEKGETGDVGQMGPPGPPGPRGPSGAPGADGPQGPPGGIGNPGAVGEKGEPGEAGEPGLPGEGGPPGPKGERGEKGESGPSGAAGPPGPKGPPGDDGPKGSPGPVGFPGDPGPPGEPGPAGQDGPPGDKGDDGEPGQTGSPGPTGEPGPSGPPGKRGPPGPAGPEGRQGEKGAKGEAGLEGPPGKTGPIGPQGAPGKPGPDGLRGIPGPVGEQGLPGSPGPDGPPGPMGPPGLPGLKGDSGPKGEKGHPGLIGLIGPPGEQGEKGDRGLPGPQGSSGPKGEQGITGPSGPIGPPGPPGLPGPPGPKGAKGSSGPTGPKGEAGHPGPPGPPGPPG
human Type V collagen, sequence (P05997 216-1229, chain 2 of 2, further chain): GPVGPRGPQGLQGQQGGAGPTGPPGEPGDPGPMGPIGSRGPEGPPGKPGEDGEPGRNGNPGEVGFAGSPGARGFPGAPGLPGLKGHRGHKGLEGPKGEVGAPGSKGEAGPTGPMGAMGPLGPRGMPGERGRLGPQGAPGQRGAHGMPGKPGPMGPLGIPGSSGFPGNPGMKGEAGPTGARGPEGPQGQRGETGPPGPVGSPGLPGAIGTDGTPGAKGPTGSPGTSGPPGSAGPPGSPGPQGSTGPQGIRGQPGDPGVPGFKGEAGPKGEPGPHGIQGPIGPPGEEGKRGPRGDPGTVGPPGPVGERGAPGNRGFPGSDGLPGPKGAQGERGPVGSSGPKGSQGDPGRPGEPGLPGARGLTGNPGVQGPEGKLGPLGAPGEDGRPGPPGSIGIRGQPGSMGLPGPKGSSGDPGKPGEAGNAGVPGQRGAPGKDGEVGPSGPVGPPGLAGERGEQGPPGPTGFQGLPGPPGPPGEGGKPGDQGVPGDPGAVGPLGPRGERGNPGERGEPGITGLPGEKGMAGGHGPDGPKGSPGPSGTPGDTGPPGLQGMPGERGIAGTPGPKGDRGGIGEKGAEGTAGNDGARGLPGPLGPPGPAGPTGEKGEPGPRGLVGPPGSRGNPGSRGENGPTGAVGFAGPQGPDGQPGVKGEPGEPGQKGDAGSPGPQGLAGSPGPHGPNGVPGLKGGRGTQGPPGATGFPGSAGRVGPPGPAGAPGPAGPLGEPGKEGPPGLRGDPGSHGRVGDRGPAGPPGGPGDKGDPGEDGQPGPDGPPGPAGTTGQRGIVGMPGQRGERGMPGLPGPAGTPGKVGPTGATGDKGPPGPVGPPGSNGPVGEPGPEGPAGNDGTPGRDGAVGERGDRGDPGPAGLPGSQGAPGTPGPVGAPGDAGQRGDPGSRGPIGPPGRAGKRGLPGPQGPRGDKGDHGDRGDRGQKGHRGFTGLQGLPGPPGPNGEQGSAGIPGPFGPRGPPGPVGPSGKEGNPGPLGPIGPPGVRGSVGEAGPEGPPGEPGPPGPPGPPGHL
human Type I collagen, sequence (P02452 162-1218, chain 1 of 2): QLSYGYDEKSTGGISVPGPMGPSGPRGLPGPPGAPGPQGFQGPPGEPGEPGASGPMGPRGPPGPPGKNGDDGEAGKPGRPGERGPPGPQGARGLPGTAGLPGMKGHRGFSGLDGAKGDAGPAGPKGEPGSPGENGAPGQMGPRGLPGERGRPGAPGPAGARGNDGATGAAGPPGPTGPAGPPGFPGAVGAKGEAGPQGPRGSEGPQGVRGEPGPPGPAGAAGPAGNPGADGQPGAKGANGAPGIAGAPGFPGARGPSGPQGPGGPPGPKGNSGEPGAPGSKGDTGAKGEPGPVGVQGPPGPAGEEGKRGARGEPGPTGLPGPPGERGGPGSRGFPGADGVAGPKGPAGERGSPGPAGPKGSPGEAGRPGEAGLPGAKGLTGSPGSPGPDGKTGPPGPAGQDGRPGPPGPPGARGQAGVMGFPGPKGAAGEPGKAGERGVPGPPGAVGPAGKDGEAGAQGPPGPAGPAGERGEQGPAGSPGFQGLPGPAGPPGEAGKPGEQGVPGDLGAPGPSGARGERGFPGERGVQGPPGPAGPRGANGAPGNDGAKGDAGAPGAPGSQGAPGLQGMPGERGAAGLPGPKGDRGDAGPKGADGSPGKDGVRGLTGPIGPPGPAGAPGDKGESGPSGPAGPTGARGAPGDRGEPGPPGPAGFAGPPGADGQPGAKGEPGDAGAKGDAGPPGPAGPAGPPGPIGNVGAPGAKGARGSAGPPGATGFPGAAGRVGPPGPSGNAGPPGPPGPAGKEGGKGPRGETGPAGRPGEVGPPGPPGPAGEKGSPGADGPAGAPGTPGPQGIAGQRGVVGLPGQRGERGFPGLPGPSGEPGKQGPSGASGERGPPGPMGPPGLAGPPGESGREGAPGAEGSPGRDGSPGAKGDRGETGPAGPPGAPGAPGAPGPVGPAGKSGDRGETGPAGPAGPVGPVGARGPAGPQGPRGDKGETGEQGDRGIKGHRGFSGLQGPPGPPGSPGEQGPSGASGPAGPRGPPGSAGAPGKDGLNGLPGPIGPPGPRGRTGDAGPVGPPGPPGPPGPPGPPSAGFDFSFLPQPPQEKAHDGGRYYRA
human Type I collagen, sequence (P08123 80-1119, chain 2 of 2, further chain): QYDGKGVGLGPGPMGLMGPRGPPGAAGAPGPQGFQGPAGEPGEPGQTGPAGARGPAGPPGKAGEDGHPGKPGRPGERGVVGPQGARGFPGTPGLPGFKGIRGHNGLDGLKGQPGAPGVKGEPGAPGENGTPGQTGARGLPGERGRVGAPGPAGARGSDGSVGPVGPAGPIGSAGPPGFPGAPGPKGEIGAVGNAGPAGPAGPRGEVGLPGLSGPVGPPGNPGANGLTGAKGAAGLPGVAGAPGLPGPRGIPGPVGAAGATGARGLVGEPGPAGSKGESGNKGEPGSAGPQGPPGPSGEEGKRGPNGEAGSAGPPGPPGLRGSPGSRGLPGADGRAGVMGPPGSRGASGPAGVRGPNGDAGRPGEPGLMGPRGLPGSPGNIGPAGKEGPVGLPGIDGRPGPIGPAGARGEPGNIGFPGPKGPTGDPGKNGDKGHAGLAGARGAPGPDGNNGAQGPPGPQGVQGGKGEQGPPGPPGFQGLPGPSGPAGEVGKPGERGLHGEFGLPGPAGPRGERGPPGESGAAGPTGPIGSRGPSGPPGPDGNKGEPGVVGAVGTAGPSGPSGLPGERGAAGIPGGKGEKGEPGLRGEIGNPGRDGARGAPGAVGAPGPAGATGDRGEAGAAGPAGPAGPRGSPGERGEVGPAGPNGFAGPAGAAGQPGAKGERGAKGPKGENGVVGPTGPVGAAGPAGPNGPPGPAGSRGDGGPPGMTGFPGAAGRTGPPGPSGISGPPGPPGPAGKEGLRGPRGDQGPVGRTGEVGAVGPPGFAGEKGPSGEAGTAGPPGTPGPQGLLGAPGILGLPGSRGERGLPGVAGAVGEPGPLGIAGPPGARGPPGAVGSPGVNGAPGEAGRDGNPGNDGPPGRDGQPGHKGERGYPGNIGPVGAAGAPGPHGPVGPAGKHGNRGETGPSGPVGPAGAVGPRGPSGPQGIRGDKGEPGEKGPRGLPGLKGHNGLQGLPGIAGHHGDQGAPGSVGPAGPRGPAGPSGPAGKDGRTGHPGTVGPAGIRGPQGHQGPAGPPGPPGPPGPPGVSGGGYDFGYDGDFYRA

Binder | binding result [1] | Kd [2] [nM] | Kd [3] [nM] | Kd [4] [nM] | Kd [5] [nM] | binding result [6] | Kd [7] [nM] | binding result [8] | binding result [9]
B1 | no binding | 1.05 | 2.2 | 1.15 | 0.11 | no binding | 0.11 | no binding | no binding
B2 | – | – | 2 | – | – | – | – | – | –
B3 | – | 0.52 | 4.14 | 0.39 | – | – | – | – | –
